From the supplement of paper PMC11417369
Some of the results follow.

Tested on: PF3D7_0420300 AP2 domain 1 (GST-tagged)
Assay: gcPBM binding intensity (ln(normalized median fluorescence intensity)); higher = stronger DNA binding
Procedure, shortened: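 Plasmodium falciparum DNA-binding domains carrying a GST tag were expressed in E. coli and applied for 1 h, at about 25 μg on average, to an Agilent 4 × 180k array. The array held primer-extended double-stranded 36-bp intergenic genomic probes together with negative controls, and binding took place in 1× PBS with 1% milk, 0.2 mg/ml BSA, 0.5% salmon testes DNA and 0.03% Triton X-100. An Alexa488 anti-GST antibody detected bound protein, and the array was scanned at 488 nm. Binding intensity is taken as the highest Masliner-normalised natural-log median intensity across replicate spots of either probe orientation.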

| Sequence | gcPBM binding intensity (ln) |
| --- | --- |
| AGAAAAGAGAAATGGGCACACACACCCATATTATAT [CACACA_site8433] | 9.66 |
| TATATATAAAAAACATGTACACAAATTTACATACAT [XGTACX_site4777] | 9.53 |
| TCACTAAACCATTAGAGTACTTGACATATAATGAGC [XGTACX_site3272] | 9.05 |
| AAGAGTTAAAAAAATACACACATATATATTTTTTTA [CACACA_site1980] | 9.38 |
| GATTATATATGAAAATGTACAAATATATATATATAT [XGTACX_site5963] | 9.2 |
| AAAAAAAAAAAAAAAAAAAAAAAAAAATACATATGT [XGTACX_negctrl_site95] | 9.38 |
| TTTTTGTATGCTTCCCGACTACATTATGCCATAAAT [CACACA_negctrl_site136] | 9.43 |
| AAACCAAGGCACAATAATTAAATAAATAAAATCATG [GTGCAC_negctrl_site574] | 9.19 |
| ATTTATATATATATAGGTACACATATTTATATATAA [XGTACX_site8487] | 9.17 |
| ATATAATTTTTCAAGTGTACTTTTTTTTTTTAACAT [XGTACX_site3050] | 9.27 |
| TCATTCATATGTTACACACACACACCCACATAAAAA [CACACA_site3245] | 10.1 |
| TTTATATGATATATTACACACAAAAAAAAAAAAAAA [CACACA_site3549] | 9.26 |
| CTCTTCTATATATAAGCATGCATTCATAATAATTTA [TGCATGCA_site679] | 9.21 |
| TAGATACTTGTCATGGGTACATATCGTACCTTTTGG [XGTACX_site6781] | 9.03 |
| CTTAAAAAAACCTTAACACACATAAACTCTAATTTA [CACACA_site7430] | 9.34 |
| GTTTACATTAAAAATTGTACTCTGTATGAATAATAT [XGTACX_site80] | 9.1 |
| ATTTCATTTTATAAGTGTACAATAAAAAAAAAAAAA [XGTACX_site8677] | 8.94 |
| AAATTTGATATAAAAAGTACAAAATGTTCCTCAGCT [XGTACX_site809] | 9.21 |
| ATATAAACAGAAAATAGTACTTTATATTGAAAAAAA [XGTACX_site7183] | 9.25 |
| GATGATACAAAGTAATGTACATAAATACACATATTG [XGTACX_site3177] | 9.24 |
| CATTATGTCGTAAATACACACATACCTATACATACA [CACACA_site6763] | 9.57 |
| TATACACATATATAAACACACAAAAAAAAAAAAAAA [CACACA_site7041] | 9.38 |

| Sequence | gcPBM binding intensity (ln) |
| --- | --- |
| CCATAAGATATATGTAGTACATATTATATATATATA [XGTACX_site2104] | 9.13 |
| AATATATAGCTAAAAACACACAAATATATACGCATA [CACACA_site3608] | 9.69 |
| AAAATATATACACAAACATGCATATAATAAATAAAT [TGCATGCA_site711] | 9.48 |
| ATATTTCTGTGTGGATGTACATTATTAGCAGGCTTT [XGTACX_site6496] | 9.28 |
| TTCTTTTTATTTATATTTTCCCCTCTCTATAGCTAT [XGTACX_negctrl_site102] | 9.38 |
| CAAAATAATAATAAAAGTACTAACATATTTATGAAA [XGTACX_site6078] | 9.29 |
| ATAATTCAAAAAAACACACAAATTACAAAATAAACT [CACACA_site6264] | 9.91 |
| GATAATTTTTTTCTCACACACAAATATTTTAATCAT [CACACA_site3666] | 9.69 |
| AAATATATTATATCATATATTAAAGCATATATTAAA [CACACA_negctrl_site1624] | 9.03 |
| AAAAAAAAAAAACACACACACACACCGACACATACA [CACACA_site5576] | 10.2 |
| GAATATTCACATACTTGTACATATATATATATATAT [XGTACX_site7302] | 9.36 |
| AGGTAAAAATGGTAAGTGCATTAATGATAAAAAATG | 9.64 |
| TAATAATAGTACTGACATCGAAATATTATTAAAAAT [CACACA_negctrl_site255] | 9.11 |
| GTTTACATAGATAACTGTACGCAATGATATTAGACA [XGTACX_site1320] | 9.18 |
| TATAAGAATAAAAAGGGTACATAAAATAATAATATA [XGTACX_site2355] | 9.55 |
| ATATTTTGGGGACTTTTTAAAAAAGAAGTATTAAAA [CACACA_negctrl_site1228] | 8.8 |
| TGGCAAAATAGGCACACACACATATACCTATAGATT [CACACA_site7168] | 9.9 |
| GTAAATATATAAACATGTACATATATAAATATATAA [XGTACX_site7262] | 9.27 |
| AATTTTTCAAATTAATGTACTTGTTATAAATTGTAA [XGTACX_site5428] | 9.01 |
| TTGTTTCTTTTTTTTTGTACATATATATTGTATATT [XGTACX_site7602] | 9.56 |
| GGACAACAAACAAACACACACAAAAAAAAAATAAAA [CACACA_site3791] | 9.84 |
| TACGTATTTTAATATTTACACACTTATTTTTTATAT [CACACA_site7924] | 9.71 |

| Sequence | gcPBM binding intensity (ln) |
| --- | --- |
| TATATCTGTTTATATTGTACACATATATATATATAT [XGTACX_site714] | 9.36 |
| GGCAATACATAATAATGTACATAATTATATAATATT [XGTACX_site3739] | 9.24 |
| TACAAACACCCATATACACACAAAAAAAAAATAAAA [CACACA_site5421] | 9.55 |
| AGAAAAACTTATATGATACACACGATAAACAAAATA [CACACA_site1038] | 9.59 |
| TATATAATATATATATGTACATATATATATGTTTTT [XGTACX_site3347] | 9.18 |
| TATACATAAAACAGTTCACACATTGTATGAATATAT [CACACA_site4751] | 9.47 |
| ATTAATTTTAATAAAGGTACACGTAGTTTTTTATTA [XGTACX_site7868] | 9.02 |
| TTAAAATTAAAAATGCGTACACATATACATAAAAAA [XGTACX_site1915] | 9.27 |
| TATATATATATATATTGTACTGAACGTTTTTTTTTG [XGTACX_site8060] | 9.31 |
| AACAAAACCTTATATGTACACACATATACATCACAC [CACACA_site9037] | 9.8 |
| ACAGCTACCAGATACTGTACTTTTCTCCAGACTGCA [XGTACX_site2541] | 9.07 |
| AATTTATAATTATAGAGTACATATTTTTAATATATA [XGTACX_site2566] | 9.08 |
| GTAATAATTTTTTGTAGTACACAAAAATTCATATTT [XGTACX_site2699] | 9.11 |
| ATATACACTTAATTTTTTATAAAAAAAAATTTATAT [CACACA_negctrl_site498] | 8.95 |
| ATATACATAATCTTCTTGCACTTTTTTTTTTTTTTT [GTGCAC_site9410] | 9.6 |
| ATGTGATATAAGTACACACACATATGTATTTATAAC [CACACA_site6942] | 9.73 |
| TAAATATATTAATACACACACGATATGTACAAAAAA [CACACA_site540] | 9.82 |
| TGCATATACGCAAGCACACATATATATATATATATA [CACACA_site1069] | 9.17 |
| TTTTGATTTCCTATTGCACACTTTTTTTAAGTTTAT [CACACA_site1056] | 9.56 |
| TATATATATATATAATGTACATATAATATATTTATT [XGTACX_site7892] | 9.08 |
| GCTTAATGTCATATATCACACATGAAAATATATATA [CACACA_site5089] | 9.28 |
| GTATAAAAAAATAAAAGTACAAAAAAAAAAGACTGA [XGTACX_site186] | 9.67 |

| Sequence | gcPBM binding intensity (ln) |
| --- | --- |
| AAATAAAAAATATGAACACACATATATAACAAAATA [CACACA_site261] | 9.86 |
| TTTTTTTTTTTTTTTTTTTTTTTTTTTTTTTTTTTT [CACACA_negctrl_site104] | 9.41 |
| AGGATTAAAAAAACATGTACGTATTTAAATATATTT [XGTACX_site8774] | 9.36 |
| AATTGAATAAATTAAACATGCACAGATGTTCTATTT [TGCATGCA_site692] | 9.08 |
| TACTGGTATCGATATAGTACATATAATATTATGTTA [XGTACX_site7490] | 9.28 |
| TTATTTAAAAAATTTTTAAATATACAAAAAAAAAAA [TGCATGCA_negctrl_site464] | 8.78 |
| TTAATAATTAATTATAGTACACATTTATATTAATAA [XGTACX_site190] | 9.03 |
| ATTATAAGAAGGGGGGGTACATAAATATAAATGTAT [XGTACX_site5624] | 10.3 |
| TTTAATTTTCGGTGTGCACACAACTATGAGTTTTTA [CACACA_site3034] | 9.54 |
| TTTAAAAAAAAAAATACACACATAAAAATTTTCAAA [CACACA_site703] | 9.33 |
| ATATAAATAAAATATACACACATAAATATAACGACA [CACACA_site1637] | 9.98 |
| ACGAAGATTTATCTTGCACACGCAAAAAAAAAAAAA [CACACA_site7933] | 8.94 |
| AACATTTCCTTTCTGTGTACATATAAACCCATCTAT [XGTACX_site2071] | 9.4 |
| ATTATATTTTGTAAATGTACATTTATATATTTTGTA [XGTACX_site1226] | 9.33 |
| AAAAAAAAAAAAAAAGCATGCACATATTATTTTTTT [TGCATGCA_site416] | 9.09 |
| ATTCATAAACGTGTGTTAATATGAATTTAAACATAA [XGTACX_negctrl_site213] | 9.16 |
| AATTAGATGGATAAATGTACATAATGTGAATATATT [XGTACX_site86] | 9.49 |
| ATCCACTTTTTGAAGACACACACAAAAAAAAAAAAA [CACACA_site8818] | 9.36 |
| TAAAAATAATTTGCATGTACATAGGTCGATGTATTT [XGTACX_site1357] | 9.27 |
| TGTAAATTATAACGTGCACACATATTTAAAATGAAA [CACACA_site8915] | 9.33 |
| ATATAGAAAATGCATACACACTTTATAAATATATTT [CACACA_site6553] | 9.41 |
| AGATATTTATTGAGTGCATGTTATAAAGGGAAAAAA [TGCATGCA_site88] | 9.32 |
